The list shows a part of the results. Interaction screen of human proteins with wild-type SARS-CoV-2 proteins by split-DHFR complementation in yeast, 1 µg/mL methotrexate. Value = fitness of the pair (three or more lineages) minus that of the viral protein without a human partner, on a scale set by negative (0) and fused positive (1) controls, mean of up to three cultures; higher = more likely to interact. Active = false discovery rate below 0.05 (one-sided t-test) in at least one culture. Nearly all pairs are not hits, and differences among them are mostly noise (correlation between cultures about 0.3); most hits were seen in one culture only. Human sequences are the Swiss-Prot entries looked up by gene name; the clone may be another isoform. NSP2 values were corrected by the authors for a growth advantage. Listed are human proteins with a hit and a random twelfth of the others.
B1: FAM125B, Q9H7P6 (protein)
chain: MRSCFCVRRSRDPPPPQPPPPPPQRGTDQSTMPEVKDLSEALPETSMDPITGVGVVASRNRAPTGYDVVAQTADGVDADLWKDGLFKSKVTRYLCFTRSFSKENSHLGNVLVDMKLIDIKDTLPVGFIPIQETVDTQEVAFRKKRLCIKFIPRDSTEAAICDIRIMGRTKQAPPQYTFIGELNSMGIWYRMGRVPRNHDSSQPTTPSQSSAASTPAPNLPRHISLTLPATFRGRNSTRTDYEYQHSNLYAISAMDGVPFMISEKFSCVPESMQPFDLLGITIKSLAEIEKEYEYSFRTEQSAAARLPPSPTRCQQIPQS
B2: C1orf85, Q8WWB7 (protein)
chain: MRGSVECTWGWGHCAPSPLLLWTLLLFAAPFGLLGEKTRQVSLEVIPNWLGPLQNLLHIRAVGTNSTLHYVWSSLGPLAVVMVATNTPHSTLSVNWSLLLSPEPDGGLMVLPKDSIQFSSALVFTRLLEFDSTNVSDTAAKPLGRPYPPYSLADFSWNNITDSLDPATLSATFQGHPMNDPTRTFANGSLAFRVQAFSRSSRPAQPPRLLHTADTCQLEVALIGASPRGNRSLFGLEVATLGQGPDCPSMQEQHSIDDEYAPAVFQLDQLLWGSLPSGFAQWRPVAYSQKPGGRESALPCQASPLHPALAYSLPQSPIVRAFFGSQNNFCAFNLTFGASTGPGYWDQHYLSWSMLLGVGFPPVDGLSPLVLGIMAVALGAPGLMLLGGGLVLLLHHKKYSEYQSIN
B3: C12orf65, Q9H3J6 (protein)
chain: MSTVGLFHFPTPLTRICPAPWGLRLWEKLTLLSPGIAVTPVQMAGKKDYPALLSLDENELEEQFVKGHGPGGQATNKTSNCVVLKHIPSGIVVKCHQTRSVDQNRKLARKILQEKVDVFYNGENSPVHKEKREAAKKKQERKKRAKETLEKKKLLKELWESSKKVH
B4: RIMKLB, Q9ULI2 (protein)
chain: MCSSVAAKLWFLTDRRIREDYPQKEILRALKAKCCEEELDFRAVVMDEVVLTIEQGNLGLRINGELITAYPQVVVVRVPTPWVQSDSDITVLRHLEKMGCRLMNRPQAILNCVNKFWTFQELAGHGVPLPDTFSYGGHENFAKMIDEAEVLEFPMVVKNTRGHRGKAVFLARDKHHLADLSHLIRHEAPYLFQKYVKESHGRDVRVIVVGGRVVGTMLRCSTDGRMQSNCSLGGVGMMCSLSEQGKQLAIQVSNILGMDVCGIDLLMKDDGSFCVCEANANVGFIAFDKACNLDVAGIIADYAASLLPSGRLTRRMSLLSVVSTASETSEPELGPPASTAVDNMSASSSSVDSDPESTERELLTKLPGGLFNMNQLLANEIKLLVD

target: SARS-CoV-2 M; assay: yeast fitness gain over the viral ORF with no human partner (scaled fitness); higher = more likely to interact
Protocol: (§1)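 Split mouse DHFR complementation in pooled diploid yeast: human ORFeome clones carry one fragment and viral ORFs the other; barcoded lineages compete in 1 µg/mL methotrexate and fitness is read by barcode sequencing in up to three cultures.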

| Binder | yeast fitness gain |
| --- | --- |
| B1 | inactive: -0.0497 |
| B2 | inactive: 0.0876 |
| B3 | inactive: 0.0179 |
| B4 | inactive: 0.00425 |

target: SARS-CoV-2 NSP1; assay: as above
Protocol: as §1

| Binder | yeast fitness gain |
| --- | --- |
| B1 | inactive: -0.0465 |
| B2 | inactive: 0.0432 |
| B3 | inactive: 0.0774 |
| B4 | inactive: 0.113 |

target: SARS-CoV-2 NSP10; assay: as above
Protocol: as §1

| Binder | yeast fitness gain |
| --- | --- |
| B1 | inactive: 0.0326 |
| B3 | inactive: 0.0181 |
| B4 | inactive: -0.00707 |

target: SARS-CoV-2 NSP12; assay: as above
Protocol: as §1

| Binder | yeast fitness gain |
| --- | --- |
| B1 | inactive: -0.0372 |
| B2 | inactive: -0.0779 |
| B3 | inactive: 0.0914 |
| B4 | inactive: 0.0226 |

target: SARS-CoV-2 NSP13; assay: as above
Protocol: as §1

| Binder | yeast fitness gain |
| --- | --- |
| B1 | inactive: -0.0533 |
| B2 | inactive: 0.0945 |
| B3 | inactive: 0.0376 |
| B4 | inactive: -0.00558 |

target: SARS-CoV-2 NSP16; assay: as above
Protocol: as §1

| Binder | yeast fitness gain |
| --- | --- |
| B1 | inactive: 0.103 |
| B3 | inactive: -0.00554 |
| B4 | inactive: 0.00815 |

target: SARS-CoV-2 NSP2; assay: as above
Protocol: as §1

| Binder | yeast fitness gain |
| --- | --- |
| B1 | inactive: 0.00131 |
| B2 | inactive: -0.161 |
| B3 | inactive: -0.0935 |
| B4 | inactive: -0.243 |

target: SARS-CoV-2 NSP5; assay: as above
Protocol: as §1

| Binder | yeast fitness gain |
| --- | --- |
| B1 | inactive: -0.0556 |
| B3 | inactive: 0.0468 |
| B4 | inactive: 0.0397 |

target: SARS-CoV-2 NSP6; assay: as above
Protocol: as §1

| Binder | yeast fitness gain |
| --- | --- |
| B1 | inactive: 0.0156 |
| B2 | inactive: 0.0753 |
| B3 | inactive: -0.0186 |
| B4 | inactive: -9.4e-05 |

target: SARS-CoV-2 ORF10; assay: as above
Protocol: as §1

| Binder | yeast fitness gain |
| --- | --- |
| B1 | inactive: -0.0763 |
| B3 | inactive: -0.00152 |

target: SARS-CoV-2 ORF3B; assay: as above
Protocol: as §1

| Binder | yeast fitness gain |
| --- | --- |
| B1 | inactive: 0.0185 |
| B3 | inactive: 0.00408 |
| B4 | inactive: -0.00509 |

target: SARS-CoV-2 ORF6; assay: as above
Protocol: as §1

| Binder | yeast fitness gain |
| --- | --- |
| B1 | inactive: -0.0196 |
| B2 | inactive: -0.0181 |
| B3 | inactive: 0.0159 |
| B4 | inactive: -0.0451 |

target: SARS-CoV-2 ORF7A; assay: as above
Protocol: as §1

| Binder | yeast fitness gain |
| --- | --- |
| B1 | inactive: -0.0494 |
| B2 | inactive: 0.167 |
| B3 | inactive: 0.0431 |

target: SARS-CoV-2 ORF7B; assay: as above
Protocol: as §1

| Binder | yeast fitness gain |
| --- | --- |
| B1 | inactive: 0.0158 |
| B2 | inactive: 0.000927 |
| B3 | inactive: 0.0612 |

target: SARS-CoV-2 ORF8; assay: as above
Protocol: as §1

| Binder | yeast fitness gain |
| --- | --- |
| B1 | inactive: -0.145 |
| B2 | inactive: 0.021 |
| B3 | inactive: 0.0441 |
| B4 | inactive: -0.131 |

target: SARS-CoV-2 ORF9B; assay: as above
Protocol: as §1

| Binder | yeast fitness gain |
| --- | --- |
| B1 | inactive: -0.0165 |
| B2 | inactive: 0.0639 |
| B3 | inactive: -0.0269 |
| B4 | inactive: -0.0268 |

target: SARS-CoV-2 S; assay: as above
Protocol: as §1

| Binder | yeast fitness gain |
| --- | --- |
| B1 | inactive: 0.0508 |
| B2 | inactive: -0.248 |
| B3 | inactive: 0.0657 |
| B4 | inactive: -0.111 |

target: SARS-CoV-2 NSP7; assay: as above
Protocol: as §1

| Binder | yeast fitness gain |
| --- | --- |
| B2 | inactive: 0.116 |
| B3 | inactive: 0.00273 |
| B4 | inactive: -0.126 |

target: SARS-CoV-2 NSP14; assay: as above
Protocol: as §1

| Binder | yeast fitness gain |
| --- | --- |
| B3 | inactive: 0.155 |

target: SARS-CoV-2 NSP15; assay: as above
Protocol: as §1

| Binder | yeast fitness gain |
| --- | --- |
| B3 | inactive: 0.0327 |

target: SARS-CoV-2 NSP4; assay: as above
Protocol: as §1

| Binder | yeast fitness gain |
| --- | --- |
| B3 | inactive: 0.0321 |

target: SARS-CoV-2 NSP8; assay: as above
Protocol: as §1

| Binder | yeast fitness gain |
| --- | --- |
| B3 | inactive: -0.106 |

target: SARS-CoV-2 NSP9; assay: as above
Protocol: as §1

| Binder | yeast fitness gain |
| --- | --- |
| B3 | inactive: 0.0541 |

target: SARS-CoV-2 ORF3A; assay: as above
Protocol: as §1

| Binder | yeast fitness gain |
| --- | --- |
| B3 | inactive: -0.0226 |

target: SARS-CoV-2 ORF9Bwu (the 73-codon ORF); assay: as above
Protocol: as §1

| Binder | yeast fitness gain |
| --- | --- |
| B3 | inactive: -0.0495 |
